pIC50: −log10 of the molar value. IC50 is the fitted dose that halves viability relative to control wells, and lower means more sensitive; a limit (>, <) means that the fit lies beyond the doses tested. The AUC spans the tested range (256-fold, ending at the top dose) of the same fit; it is 1 without any effect and falls as sensitivity rises. For part of these data: Any top dose called inferred was calculated from the reported fits.
Assays:
Test in all cases: Viability of human cancer cell lines after 72 h of drug (GDSC screen)
Dabrafenib = compound: CC(C)(C)c1nc(-c2cccc(NS(=O)(=O)c3c(F)cccc3F)c2F)c(-c2ccnc(N)n2)s1 [Dabrafenib]; conditions: top dose 10 µM
Description: (§1)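 Human cancer cell lines in 384-well plates, medium with 10% serum, drug for 72 h over a 256-fold dose range (nine 2-fold or five 4-fold steps up to the top dose). Adherent lines were fixed and stained with the nucleic acid dye Syto60, suspension lines read with resazurin; signal relative to control wells, capped at 0 and 100%. One two-parameter sigmoid per drug and line, fitted in a mixed model over all curves with the slope shared within a line.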

SN-38 = compound: CCc1c2c(nc3ccc(O)cc13)-c1cc3c(c(=O)n1C2)COC(=O)[C@]3(O)CC [SN-38]; conditions: top dose 0.05 µM; top dose inferred
Description: as §1

Methotrexate = compound: CN(Cc1cnc2nc(N)nc(N)c2n1)c1ccc(C(=O)N[C@@H](CCC(=O)O)C(=O)O)cc1 [Methotrexate]; conditions: top dose 0.2 µM
Description: as §1

Axitinib = compound: CNC(=O)c1ccccc1Sc1ccc2c(/C=C/c3ccccn3)n[nH]c2c1 [Axitinib]; conditions: top dose 2 µM
Description: as §1

Vorinostat = compound: O=C(CCCCCCC(=O)Nc1ccccc1)NO [Vorinostat]; conditions: top dose 10 µM
Description: as §1

| Cell Line | AUC (Dabrafenib) | pIC50 (Dabrafenib) | AUC (SN-38) | pIC50 (SN-38) | AUC (Methotrexate) | pIC50 (Methotrexate) | AUC (Axitinib) | pIC50 (Axitinib) | AUC (Vorinostat) | pIC50 (Vorinostat) |
| --- | --- | --- | --- | --- | --- | --- | --- | --- | --- | --- |
| NCI-H2291 (lung adenocarcinoma, adherent) | 0.841 | < 5.00 | 0.932 | < 7.30 | 0.971 | < 6.70 | 0.983 | < 5.70 | 0.894 | < 5.00 |
| WM1552C (melanoma, adherent) | 0.833 | 5.19 | 0.963 | < 7.30 | 0.872 | 6.71 | 0.983 | < 5.70 | 0.878 | < 5.00 |
| no-11 (glioma, adherent) | 0.981 | < 5.00 | 0.852 | < 7.30 | 0.976 | < 6.70 | 0.976 | < 5.70 | 0.822 | 5.10 |
| GOTO (neuroblastoma, adherent) | 0.974 | < 5.00 | 0.294 | 9.12 | 0.955 | < 6.70 | 0.868 | < 5.70 | 0.519 | 6.15 |
| NCI-H2452 (mesothelioma, adherent) | 0.83 | 5.10 | 0.793 | 7.56 | 0.928 | < 6.70 | 0.955 | < 5.70 | 0.885 | < 5.00 |
| NMC-G1 (glioma, adherent) | 0.394 | 6.52 | 0.541 | 8.38 | 0.977 | < 6.70 | 0.98 | < 5.70 | 0.864 | < 5.00 |
| BALL-1 (B-cell leukaemia, suspension) | 0.994 | < 5.00 | 0.43 | 8.68 | 0.639 | 7.57 | 0.997 | < 5.70 | 0.602 | 5.95 |
| EW-1 (Ewing sarcoma, semi-adherent) | 0.986 | < 5.00 | 0.289 | 9.08 | 0.843 | 6.90 | 0.909 | < 5.70 | 0.6 | 5.94 |
| KP-2 (pancreas, adherent) | 0.934 | < 5.00 | 0.865 | 7.30 | 0.963 | < 6.70 | 0.986 | < 5.70 | 0.85 | 5.07 |
| Mo-T (hairy cell leukaemia, suspension) | 0.976 | < 5.00 | 0.676 | 8.01 | 0.937 | < 6.70 | 0.93 | < 5.70 | 0.433 | 6.39 |
| LK-2 (lung squamous cell carcinoma, adherent) | 0.985 | < 5.00 | 0.726 | 7.88 | 0.913 | < 6.70 | 0.909 | < 5.70 | 0.749 | 5.51 |
| H2795 (mesothelioma, adherent) | 0.965 | < 5.00 | 0.608 | 8.21 | 0.79 | 7.06 | 0.757 | 6.17 | 0.669 | 5.74 |
| SU-DHL-5 (B-cell lymphoma, suspension) | 0.579 | 6.01 | 0.127 | 9.47 | 0.64 | 7.56 | 0.929 | 5.73 | 0.522 | 6.15 |
| LB771-HNC (head and neck, adherent) | 0.956 | < 5.00 | 0.905 | < 7.30 | 0.982 | < 6.70 | 0.885 | < 5.70 | 0.897 | < 5.00 |
| H2722 (mesothelioma, adherent) | 0.971 | < 5.00 | 0.801 | 7.52 | 0.984 | < 6.70 | 0.927 | < 5.70 | 0.917 | < 5.00 |
| HDLM-2 (Hodgkin lymphoma, suspension) | 0.918 | < 5.00 | 0.747 | 7.80 | 0.885 | < 6.70 | 0.927 | < 5.70 | 0.619 | 5.88 |
| COR-L321 (lung, suspension) | 0.984 | < 5.00 | 0.881 | < 7.30 | 0.942 | < 6.70 | 0.975 | < 5.70 | 0.531 | 6.12 |
| MRK-nu-1 (breast, suspension) | 0.989 | < 5.00 | 0.811 | 7.62 | 0.97 | < 6.70 | 0.974 | < 5.70 | 0.877 | 5.06 |
| YT (lymphoid neoplasm, suspension) | 0.992 | < 5.00 | 0.744 | 7.87 | 0.968 | < 6.70 | 0.972 | < 5.70 | 0.435 | 6.37 |
| KYM-1 (rhabdomyosarcoma, adherent) | 0.98 | < 5.00 | 0.63 | 8.17 | 0.972 | < 6.70 | 0.93 | < 5.70 | 0.724 | 5.62 |
| DMS-114 (small cell lung carcinoma, adherent) | 0.889 | < 5.00 | 0.804 | 7.53 | 0.977 | < 6.70 | 0.88 | < 5.70 | 0.774 | 5.34 |
| PCI-15A (head and neck, adherent) | 0.985 | < 5.00 | 0.631 | 8.14 | 0.988 | < 6.70 | 0.931 | < 5.70 | 0.988 | < 5.00 |
| HDQ-P1 (breast, adherent) | 0.972 | < 5.00 | 0.896 | < 7.30 | 0.951 | < 6.70 | 0.985 | < 5.70 | 0.887 | < 5.00 |
| Ca9-22 (head and neck, adherent) | 0.957 | < 5.00 | 0.468 | 8.59 | 0.959 | < 6.70 | 0.948 | < 5.70 | 0.6 | 5.94 |
| NCI-H1648 (lung adenocarcinoma, adherent) | 0.978 | < 5.00 | 0.783 | 7.65 | 0.98 | < 6.70 | 0.96 | < 5.70 | 0.793 | 5.31 |
| MDST8 (large intestine, adherent) | 0.196 | 7.10 | 0.539 | 8.40 | 0.783 | 7.08 | 0.937 | < 5.70 | 0.738 | 5.53 |

| Cell Line | AUC (Dabrafenib) | pIC50 (Dabrafenib) | AUC (SN-38) | pIC50 (SN-38) | AUC (Methotrexate) | pIC50 (Methotrexate) | AUC (Axitinib) | pIC50 (Axitinib) | AUC (Vorinostat) | pIC50 (Vorinostat) |
| --- | --- | --- | --- | --- | --- | --- | --- | --- | --- | --- |
| RPMI-2650 (head and neck, adherent) | 0.94 | < 5.00 | 0.503 | 8.50 | 0.969 | < 6.70 | 0.95 | < 5.70 | 0.733 | 5.51 |
| A3-KAW (B-cell lymphoma, suspension) | 0.511 | 6.18 | 0.338 | 8.91 | 0.709 | 7.38 | 0.988 | < 5.70 | 0.477 | 6.26 |
| 697 (lymphoblastic leukaemia, suspension) | 0.439 | 6.36 | 0.487 | 8.54 | 0.433 | 8.07 | 0.856 | 5.95 | 0.427 | 6.39 |
| KNS-81-FD (glioma, adherent) | 0.897 | < 5.00 | 0.625 | 8.11 | 0.965 | < 6.70 | 0.962 | < 5.70 | 0.89 | < 5.00 |
| YH-13 (glioma, adherent) | 0.92 | < 5.00 | 0.744 | 7.79 | 0.983 | < 6.70 | 0.83 | 5.87 | 0.663 | 5.74 |
| D-502MG (glioma, adherent) | 0.837 | < 5.00 | 0.545 | 8.35 | 0.976 | < 6.70 | 0.916 | < 5.70 | 0.837 | < 5.00 |
| MMAC-SF (melanoma, adherent) | 0.066 | > 7.41 | 0.842 | 7.43 | 0.985 | < 6.70 | 0.985 | < 5.70 | 0.821 | 5.21 |
| NCI-H647 (non-small cell lung carcinoma, adherent) | 0.738 | 5.51 | 0.578 | 8.29 | 0.983 | < 6.70 | 0.959 | < 5.70 | 0.871 | < 5.00 |
| SK-MM-2 (myeloma, suspension) | 0.981 | < 5.00 | 0.897 | < 7.30 | 0.974 | < 6.70 | 0.987 | < 5.70 | 0.68 | 5.69 |
| H4 (glioma, adherent) | 0.946 | < 5.00 | 0.408 | 8.76 | 0.983 | < 6.70 | 0.82 | 5.95 | 0.651 | 5.79 |
| NCI-H1563 (lung adenocarcinoma, adherent) | 0.954 | < 5.00 | 0.925 | < 7.30 | 0.96 | < 6.70 | 0.811 | 5.88 | 0.756 | 5.40 |
| TGBC11TKB (stomach, adherent) | 0.974 | < 5.00 | 0.879 | 7.39 | 0.959 | < 6.70 | 0.968 | < 5.70 | 0.72 | 5.62 |
| RCC-FG2 (kidney, adherent) | 0.766 | 5.33 | 0.832 | 7.35 | 0.982 | < 6.70 | 0.922 | < 5.70 | 0.812 | 5.14 |
| NCI-H2405 (lung adenocarcinoma, adherent) | 0.902 | < 5.00 | 0.681 | 7.97 | 0.986 | < 6.70 | 0.943 | < 5.70 | 0.885 | < 5.00 |
| SKG-IIIa (cervix, adherent) | 0.972 | < 5.00 | 0.629 | 8.10 | 0.97 | < 6.70 | 0.939 | < 5.70 | 0.625 | 5.81 |
| VMRC-MELG (melanoma, adherent) | 0.956 | < 5.00 | 0.988 | < 7.30 | 0.989 | < 6.70 | 0.962 | < 5.70 | 0.78 | 5.36 |
| OV-17R (ovary, adherent) | 0.972 | < 5.00 | 0.672 | 7.94 | 0.98 | < 6.70 | 0.951 | < 5.70 | 0.606 | 5.86 |
| LN-405 (glioma, adherent) | 0.977 | < 5.00 | 0.947 | < 7.30 | 0.982 | < 6.70 | 0.984 | < 5.70 | 0.783 | 5.27 |
| HuO9 (osteosarcoma, adherent) | 0.956 | < 5.00 | 0.531 | 8.42 | 0.935 | < 6.70 | 0.947 | < 5.70 | 0.659 | 5.74 |
| D-423MG (glioma, adherent) | 0.978 | < 5.00 | 0.548 | 8.36 | 0.978 | < 6.70 | 0.914 | < 5.70 | 0.539 | 6.09 |
| NCI-H727 (lung carcinoid, adherent) | 0.882 | < 5.00 | 0.899 | < 7.30 | 0.923 | < 6.70 | 0.975 | < 5.70 | 0.903 | < 5.00 |
| HA7-RCC (kidney, adherent) | 0.784 | 5.33 | 0.435 | 8.69 | 0.977 | < 6.70 | 0.953 | < 5.70 | 0.859 | 5.01 |
| KS-1 (glioma, adherent) | 0.977 | < 5.00 | 0.74 | 7.74 | 0.977 | < 6.70 | 0.942 | < 5.70 | 0.83 | 5.07 |
| CAL-29 (bladder, adherent) | 0.904 | < 5.00 | 0.463 | 8.61 | 0.97 | < 6.70 | 0.935 | < 5.70 | 0.698 | 5.63 |
| NCI-H661 (large cell lung carcinoma, adherent) | 0.937 | < 5.00 | 0.724 | 7.80 | 0.98 | < 6.70 | 0.951 | < 5.70 | 0.664 | 5.70 |
